Assay results published in the BET-seq Pho4 binding data (Le et al. 2018).
Some of the results follow. The energies were worked out here from pooled read counts, against the library average; single values are noisy.

target: T1, Pho4 (S. cerevisiae) (UniProt P07270); assay: relative binding free energy (BET-seq); higher = weaker binding; settings: reference: library average
T1 sequence: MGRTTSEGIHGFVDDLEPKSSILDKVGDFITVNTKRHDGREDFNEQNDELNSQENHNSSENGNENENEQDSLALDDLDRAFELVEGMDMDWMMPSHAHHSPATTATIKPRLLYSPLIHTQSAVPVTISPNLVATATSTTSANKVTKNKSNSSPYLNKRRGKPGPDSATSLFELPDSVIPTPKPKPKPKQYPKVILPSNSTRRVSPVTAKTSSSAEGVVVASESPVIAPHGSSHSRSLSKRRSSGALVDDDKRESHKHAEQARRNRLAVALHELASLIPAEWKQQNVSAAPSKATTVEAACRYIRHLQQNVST

| Sequence | relative binding free energy |
| --- | --- |
| ATGGTCACGTGTTCAG | 0.11 kcal/mol |
| TATTGCACGTGGCCTT | 0 kcal/mol |
| TATTTCACGTGGCTTG | 0.24 kcal/mol |
| GGTATCACGTGGGGGA | 0.13 kcal/mol |
| TGTGCCACGTGGCTGT | -0.11 kcal/mol |
| GTTTGCACGTGATTGA | 0.19 kcal/mol |
| AAAGGCACGTGGTAGG | -0.21 kcal/mol |
| TTTTGCACGTGCAATG | -0.01 kcal/mol |
| TCACGCACGTGGGTGA | -0.21 kcal/mol |
| TGTTCCACGTGTGTGA | 0 kcal/mol |
| CTCAGCACGTGGGGGG | -0.28 kcal/mol |
| AATATCACGTGGTTAG | -0.04 kcal/mol |
| GCTTACACGTGAATGG | 0.29 kcal/mol |
| TAATTCACGTGGTGCA | 0.16 kcal/mol |
| ATAGTCACGTGATTGC | 0.13 kcal/mol |
| TTCTACACGTGTGGCT | 0.12 kcal/mol |
| GGGGCCACGTGGGCTC | -0.01 kcal/mol |
| GCTGTCACGTGGTATA | 0 kcal/mol |
| TGAAGCACGTGGGCGT | -0.23 kcal/mol |
| ACCTTCACGTGTTGGT | 0.21 kcal/mol |

| Sequence | relative binding free energy |
| --- | --- |
| AAATGCACGTGTATGG | -0.11 kcal/mol |
| TGTTGCACGTGTATTT | 0.04 kcal/mol |
| GGCTGCACGTGAATTT | 0.28 kcal/mol |
| GGGTCCACGTGTCGTT | 0.11 kcal/mol |
| TAGTACACGTGTAGCT | 0.22 kcal/mol |
| TACGGCACGTGTATTG | -0.15 kcal/mol |
| TGCGGCACGTGGGGAA | -0.26 kcal/mol |
| TGGTTCACGTGCCAGG | 0.14 kcal/mol |
| ATTCTCACGTGAGGGA | 0.32 kcal/mol |
| GCTGGCACGTGTATGA | 0.03 kcal/mol |
| TGGTTCACGTGGAATA | 0.24 kcal/mol |
| TTTAACACGTGGGTGA | -0.1 kcal/mol |
| TGAGGCACGTGATTTC | -0.02 kcal/mol |
| GCACGCACGTGGTGTG | -0.23 kcal/mol |
| TAAGGCACGTGTAGGA | -0.05 kcal/mol |
| TTTGTCACGTGGAATG | 0.21 kcal/mol |
| TGCTTCACGTGCGCGG | 0.26 kcal/mol |
| TGGGACACGTGCGGGT | 0.05 kcal/mol |
| TGCTGCACGTGGATAG | -0.13 kcal/mol |
| GGGTGCACGTGTTCTT | 0.02 kcal/mol |

| Sequence | relative binding free energy |
| --- | --- |
| CACGTCACGTGAGTGG | 0.31 kcal/mol |
| GATGTCACGTGGTGAG | 0.1 kcal/mol |
| GATAGCACGTGGTGCA | 0.11 kcal/mol |
| TGTGGCACGTGTCCCG | -0.07 kcal/mol |
| TGGAGCACGTGCCGGG | -0.25 kcal/mol |
| AGTTGCACGTGCAGGG | -0.01 kcal/mol |
| GTGTGCACGTGATACG | 0.07 kcal/mol |
| CGATGCACGTGATAGG | 0.07 kcal/mol |
| GAGGACACGTGAGCGT | 0.33 kcal/mol |
| TGATTCACGTGGTAAG | 0.17 kcal/mol |
| TATCACACGTGTGGGT | 0.12 kcal/mol |
| TCTTGCACGTGGGATG | -0.17 kcal/mol |
| ATACACACGTGTTTTT | 0.01 kcal/mol |
| GGGCTCACGTGTTGGC | 0.28 kcal/mol |
| GAGTTCACGTGTTTTT | 0.43 kcal/mol |
| GTTGGCACGTGCATGA | -0.15 kcal/mol |
| GTTGTCACGTGATCTT | 0.28 kcal/mol |
| GTAATCACGTGCTTTT | 0.19 kcal/mol |
